Measurements from PubChem BioAssay AID504332 (National Center for Advancing Translational Sciences (NCATS), 2011).
Among all 350,000 compounds or so, about 31,000 (8.9%) were called active. The inconclusive results got no clear call from the source; some entries with a clear call stand among them for comparison. The call rests on the fitted dose curve; in most records, active means well fitted inhibition curve with a large enough effect; inconclusive means small, poorly fitted or top-dose-only effect; inactive means no such curve, though single readings can be large or run the other way. Potencies beside an inconclusive call are fits to weak or partial responses and may not hold up.

Each molecule was assayed against Histone-lysine N-methyltransferase EHMT2 (Homo sapiens) (UniProt Q96KQ7) (assay: qHTS Assay for Inhibitors of Histone Lysine Methyltransferase G9a). Conditions: G9a H3K9 monomethylation, AlphaScreen, 2 h; activity, negative = inhibition: at 59 µM (top of the series) unless noted.
Procedure, shortened: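 AlphaScreen read-out: biotin-H3K9 peptide (500 nM) methylation by 20 nM enzyme with 20 uM SAM, 2 h at room temperature after 15 min compound preincubation; anti-monomethyl H3K9 antibody plus donor/acceptor beads, 10 min dark.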
Further: nearly all actives have a fitted effect of over 75% in size.
On the % scale 0 is the no-effect control and ±100 the full control effect; potency means the concentration at half of the fitted maximal effect; tags describe the fitted curve by direction and shape.

Sequence of UniProt Q96KQ7 (Q96KQ7 whole entry, looked up): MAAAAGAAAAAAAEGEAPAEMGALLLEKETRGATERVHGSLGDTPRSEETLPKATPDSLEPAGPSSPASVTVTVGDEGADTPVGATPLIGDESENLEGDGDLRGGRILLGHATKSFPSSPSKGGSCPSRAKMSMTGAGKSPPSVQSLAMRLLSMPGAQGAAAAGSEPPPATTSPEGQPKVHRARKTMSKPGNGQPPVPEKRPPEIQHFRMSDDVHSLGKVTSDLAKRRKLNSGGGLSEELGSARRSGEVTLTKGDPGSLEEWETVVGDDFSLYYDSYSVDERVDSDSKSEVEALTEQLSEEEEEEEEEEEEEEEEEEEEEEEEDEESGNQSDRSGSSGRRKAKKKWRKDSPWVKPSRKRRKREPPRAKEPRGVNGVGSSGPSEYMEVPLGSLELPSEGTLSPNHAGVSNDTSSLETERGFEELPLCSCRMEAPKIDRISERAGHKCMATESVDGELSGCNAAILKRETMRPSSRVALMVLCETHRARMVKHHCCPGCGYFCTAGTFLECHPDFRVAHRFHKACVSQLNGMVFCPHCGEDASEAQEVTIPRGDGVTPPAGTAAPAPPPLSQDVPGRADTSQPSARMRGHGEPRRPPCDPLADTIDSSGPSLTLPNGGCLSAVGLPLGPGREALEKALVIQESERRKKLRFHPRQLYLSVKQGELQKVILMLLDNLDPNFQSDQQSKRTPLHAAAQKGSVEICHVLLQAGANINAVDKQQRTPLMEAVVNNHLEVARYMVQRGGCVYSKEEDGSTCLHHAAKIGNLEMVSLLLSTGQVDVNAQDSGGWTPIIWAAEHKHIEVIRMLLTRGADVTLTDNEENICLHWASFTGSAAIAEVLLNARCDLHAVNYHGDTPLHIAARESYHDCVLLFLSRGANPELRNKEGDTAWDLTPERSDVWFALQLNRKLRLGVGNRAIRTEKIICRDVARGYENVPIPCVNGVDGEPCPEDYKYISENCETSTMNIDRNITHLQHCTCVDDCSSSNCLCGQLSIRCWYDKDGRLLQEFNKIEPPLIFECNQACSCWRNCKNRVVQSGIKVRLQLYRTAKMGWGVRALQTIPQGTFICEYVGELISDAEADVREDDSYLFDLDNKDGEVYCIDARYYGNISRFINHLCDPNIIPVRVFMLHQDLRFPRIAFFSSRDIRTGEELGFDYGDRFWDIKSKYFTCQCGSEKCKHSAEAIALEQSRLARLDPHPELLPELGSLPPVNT

Row | Compound | activity, negative = inhibition | Potency
1 | CC1=C(C(=O)OC2CCCC2)C(c2c(Cl)cccc2Cl)CC(=O)N1 (stereo unspecified) | inactive: 7.86% | –
2 | COc1ccc(S(=O)(=O)N2CCC(C(=O)N(C)Cc3ccc(C)o3)CC2)cc1OC | inactive: -2.18% [at 12.7 µM] | –
3 | Clc1cccc(CSc2ccc(-c3cccnc3)nn2)c1 | inactive: -42% [at 102 µM] | –
4 | CNC(=O)COC(=O)c1cc(-c2ccco2)nc2ccccc12 | – | active: 10 µM
5 | CCN(CC)c1ccc(/C=N/NC(=O)c2cc(C)nc3ccccc23)cc1 | inactive: 29.5% [at 102 µM] | –
6 | Cc1ccc2cn[nH]c2c1N | – | inconclusive: 31.6 µM [inhibitor, partial curve]
7 | COC(=O)c1ccccc1NC(=O)c1ccc(COc2cccc3ccccc23)o1 | – | inconclusive: 28.2 µM [inhibitor, single point]
8 | c1ccc(C(c2ccccc2)N2CC[C@@]3(CCCNC3)C2)cc1 | inactive: -28.3% [at 12.7 µM] | –
9 | O=C(Cc1ccc(F)cc1)N/N=C/c1ccc(-c2ccc(Cl)c(C(=O)O)c2)o1 | – | inconclusive: 50.1 µM [inhibitor, partial curve]
10 | Nc1ccc2nc(CCCO)[nH]c2c1 | – | active: 28.2 µM
11 | Cc1cc(C(=O)O)ccc1-c1ccc(CO)o1 | – | inconclusive: 0.708 µM [inhibitor, full curve, poor fit]
12 | CCOC(=O)c1ccccc1NC(=O)Cn1ncc2c1-c1ccccc1OC2 | inactive: 9.13% | –
13 | Cc1cc(C)cc(NC(=O)CSc2oc(-c3ccccc3)nc2S(=O)(=O)c2ccc(Cl)cc2)c1 | – | inconclusive: 14.1 µM [inhibitor, partial curve, poor fit]
14 | CCOC(=O)c1cccc(C(=O)Oc2ccccc2)n1 | – | inconclusive: 28.2 µM [inhibitor, partial curve, poor fit]
15 | Cn1ccnc1C(O)c1ccco1 (stereo unspecified) | inconclusive: -69% [inhibitor] | –
16 | Cc1cccc(N=Cc2cc(Br)cc(Cl)c2O)c1 | inactive: -29.1% [at 102 µM] | –
17 | CCN1CCN(C(=O)CCc2nnc3ccc(N4CCC5(CC4)OCCO5)nn23)CC1 | – | inconclusive: 100 µM [inhibitor, single point]
18 | CCOc1ccc(NC(=O)N2CCC(n3c(=O)[nH]c4ccccc43)CC2)cc1 | inactive: -6.25% [at 102 µM] | –
19 | Cc1ccc(-c2nnc(SCC(=O)N/N=C/c3ccccc3C(=O)O)n2-c2ccc(Cl)cc2)cc1 | – | inconclusive: 79.4 µM [inhibitor, partial curve, poor fit]
20 | Cc1ccccc1N1C(=S)NC2c3ccccc3OC1(C)C2C(=O)N(C)C (stereo unspecified) | – | inconclusive: 39.8 µM [inhibitor, single point]
21 | COc1ccc2c(c1)C=C(CN1CCN(Cc3ccccc3C)C(CCO)C1)CO2 (stereo unspecified) | – | inconclusive: 56.2 µM [inhibitor, single point]
